About 14,000 (4.5%) of roughly 310,000 compounds showed an effect of 50% or more. The effect is printed as a negative number. The list shows a part of the results.
Target: human ether-à-go-go-related gene (hERG) potassium channel (human, UniProt Q12809)
Experiment: primary screen, population patch clamp on CHO cells stably expressing hERG
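Note: peak tail current of the secondary pulse compared with the same well before compound.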

Chain of human ether-à-go-go-related gene (hERG) potassium channel (Q12809 whole entry, looked up): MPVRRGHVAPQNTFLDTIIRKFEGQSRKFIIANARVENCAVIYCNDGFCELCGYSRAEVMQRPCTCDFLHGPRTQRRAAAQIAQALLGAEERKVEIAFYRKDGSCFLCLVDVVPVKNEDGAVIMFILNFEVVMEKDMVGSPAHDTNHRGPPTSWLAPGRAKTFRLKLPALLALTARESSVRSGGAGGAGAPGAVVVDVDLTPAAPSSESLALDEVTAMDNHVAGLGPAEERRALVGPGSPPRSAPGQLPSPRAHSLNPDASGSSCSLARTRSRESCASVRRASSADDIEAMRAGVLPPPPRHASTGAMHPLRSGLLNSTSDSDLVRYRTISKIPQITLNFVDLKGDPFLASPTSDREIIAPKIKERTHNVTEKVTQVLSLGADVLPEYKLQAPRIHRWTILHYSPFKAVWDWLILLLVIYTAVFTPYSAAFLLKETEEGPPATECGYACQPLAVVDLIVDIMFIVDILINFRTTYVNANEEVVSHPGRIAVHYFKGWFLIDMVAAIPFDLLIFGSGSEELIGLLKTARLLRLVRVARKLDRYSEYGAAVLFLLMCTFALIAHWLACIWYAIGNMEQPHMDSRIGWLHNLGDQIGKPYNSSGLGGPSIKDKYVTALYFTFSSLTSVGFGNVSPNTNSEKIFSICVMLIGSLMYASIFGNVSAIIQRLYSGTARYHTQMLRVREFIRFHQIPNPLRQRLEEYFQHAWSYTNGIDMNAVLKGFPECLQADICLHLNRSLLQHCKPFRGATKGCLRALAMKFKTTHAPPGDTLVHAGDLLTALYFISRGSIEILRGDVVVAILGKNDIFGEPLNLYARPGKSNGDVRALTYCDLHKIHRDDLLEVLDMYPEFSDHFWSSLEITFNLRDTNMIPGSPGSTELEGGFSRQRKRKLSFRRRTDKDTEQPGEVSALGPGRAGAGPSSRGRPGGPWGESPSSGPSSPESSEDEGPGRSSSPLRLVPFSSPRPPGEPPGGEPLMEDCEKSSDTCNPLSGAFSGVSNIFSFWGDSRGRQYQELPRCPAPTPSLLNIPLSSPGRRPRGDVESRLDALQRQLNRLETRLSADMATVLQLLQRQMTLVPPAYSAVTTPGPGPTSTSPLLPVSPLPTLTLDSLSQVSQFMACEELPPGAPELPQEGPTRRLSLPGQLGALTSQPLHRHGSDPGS

Going from `Cc1cc(NC(=O)c2cccs2)n(-c2ccccc2)n1` to `Cc1cc(NC(=O)c2ccccc2)n(-c2nc3ccccc3[nH]2)n1`, the “hERG current change (%, negative = inhibition) at 10uM” value rises from 6.4% to 27.5%.

Going from `Cc1ccc(C)c2[nH]c(=O)c(CN(CCCN(C)C)C(=O)NCc3ccccc3)cc12` to `CCn1cc(S(=O)(=O)CC(=O)Nc2cc(C)ccc2C)c2ccccc21`, the “hERG current change (%, negative = inhibition) at 10uM” value rises from -52.2% to -2.2%.

First: COCCn1cc(C(=O)N2CCC(C)CC2)c2c3ccccc3n(C)c2c1=O
Second: CCN1CCN(C(=O)c2oc(=O)c3ccccc3c2-c2ccc(C)cc2)CC1
The “hERG current change (%, negative = inhibition) at 10uM” value of the first is lower: -27% for the first, -22.2% for the second.

Compared with `CCCCN1CC(=O)N2[C@H]3c4cc(Cl)ccc4OC[C@@H]3[C@H](c3ccccc3)[C@]2(C)C1=O`, `Cc1nn(CC(=O)c2ccccc2)c(=O)c2nn(-c3ccccc3F)c(C)c12` is lower in “hERG current change (%, negative = inhibition) at 10uM” value: 0.457% for the first, -9.51% for the second.

Going from `C=CCn1c(SCc2nc3ccccc3c(=O)[nH]2)nc2scc(C3CC3)c2c1=O` to `C=CCn1c(-c2ccc3[nH]c(C)c(C)c3c2)n[nH]c1=S`, the “hERG current change (%, negative = inhibition) at 10uM” value rises from 5.17% to 16.7%.

First: Cc1ccc(S(=O)(=O)Nc2cccc(C(=O)NCC3(N4CCCCC4)CCCCC3)c2)cc1F
Second: Cc1ccc(C(=O)NNC(=O)c2ccncc2)cc1S(=O)(=O)N1CCCCC1
The “hERG current change (%, negative = inhibition) at 10uM” value of the first is lower: -82.6% for the first, -14% for the second.

Going from `CC(C)c1nc2sc3c(NCc4ccccc4)ncnc3c2c2c1COC(C)(C)C2` to `COc1ccc(CNc2ncnc3c2[nH]c2ccccc23)cc1`, the “hERG current change (%, negative = inhibition) at 10uM” value falls from 16.5% to 1.67%.

Going from `Cc1ccc(O)c(N=Nc2nccs2)c1` to `Cn1c(O)c(N=Nc2nc(-c3ccccc3)cs2)c2ccccc21`, the “hERG current change (%, negative = inhibition) at 10uM” value falls from 14.2% to -6.78%.

First: NC(=NCCCCCCN=C(N)/N=C(\N)Nc1ccc(Cl)cc1)/N=C(\N)Nc1ccc(Cl)cc1
Second: CC(=O)Nc1ccc(C(=O)N/N=C(\C)CC(=O)Nc2ccc(OCc3ccccc3)cc2)cc1
The “hERG current change (%, negative = inhibition) at 10uM” value of the first is lower: -5.23% for the first, 9.5% for the second.

Compared with `CC(=O)Nc1ccc(NC(=O)Nc2cc(C)cc(C)c2)cc1`, `Cc1cccc(C)c1NC(=O)CNC(=O)c1ccc(N2CCCC2=O)cc1` is lower in “hERG current change (%, negative = inhibition) at 10uM” value: 13.7% for the first, 6.49% for the second.

Compared with `COc1ccccc1-n1ccnc1SCC(=O)NC(C)(C)C`, `CC(C)(C)Cc1nnc(NS(=O)(=O)Cc2ccccc2)s1` is lower in “hERG current change (%, negative = inhibition) at 10uM” value: 13.3% for the first, -7.06% for the second.

Going from `CSc1cccc2sc(NC(=O)C3=COCCO3)nc12` to `O=C(NC1CC1)c1ccc(CS(=O)(=O)c2c(Cl)cccc2Cl)o1`, the “hERG current change (%, negative = inhibition) at 10uM” value falls from 5.96% to -5.87%.

Compared with `CCc1ccc(N(C(=O)c2csnn2)C(C(=O)NC(C)(C)CC)c2cccnc2)cc1` (stereo not shown), `N#C/C(=C\c1cccnc1)C(=O)Nc1ccc(SC(F)F)cc1` is lower in “hERG current change (%, negative = inhibition) at 10uM” value: 0.573% for the first, -39.4% for the second.

Going from `Cc1c(CCC(=O)NCC(=O)O)c(=O)oc2cc3occ(-c4ccccc4)c3cc12` to `CSCC[C@H](NC(=O)c1cc2c([nH]c3ccccc32)c(-c2ccccc2)n1)C(=O)O`, the “hERG current change (%, negative = inhibition) at 10uM” value rises from 7.75% to 27%.

First: CCC(C)NC(=O)c1ccc2nc(-c3ccc(OC)c(OC)c3)c(-c3ccc(OC)c(OC)c3)nc2c1 (stereo not shown)
Second: Cc1ccccc1OCC(=O)NNC(=O)c1ccc2c(=O)n3c(nc2c1)CCC3
The “hERG current change (%, negative = inhibition) at 10uM” value of the first is higher: 3% for the first, -14.3% for the second.

Compared with `CSc1nccc(Nc2ccccc2)c1C#N`, `Cc1cc(N2CCN(c3nnnn3-c3ccccc3)CC2)n2ncnc2n1` is lower in “hERG current change (%, negative = inhibition) at 10uM” value: 3.86% for the first, -60.2% for the second.

Compared with `COC(=O)C1=C(c2ccccc2)C[C@@H]2CC[C@H]1N2C(=O)NC1CC1`, `Cc1cccc(C(=O)NC2CCN(C(=O)NCc3ccccc3)CC2)c1` is lower in “hERG current change (%, negative = inhibition) at 10uM” value: -4.75% for the first, -12.1% for the second.

First: CCn1ncc(/C=N/NC(=O)c2cc(Cl)ccc2OC)c1C
Second: CCCCOn1c(C)c(C(C)=O)c2c3no[n+]([O-])c3ccc21
The “hERG current change (%, negative = inhibition) at 10uM” value of the first is higher: 4.65% for the first, -38.9% for the second.

Going from `NS(=O)(=O)c1ccc(CNC(=O)c2cc(=O)c3ccccc3o2)cc1` to `CN(C)S(=O)(=O)c1cccc(NC(=O)c2cncc(Br)c2)c1`, the “hERG current change (%, negative = inhibition) at 10uM” value falls from 10.8% to -3.39%.

First: CCOC(=O)C(NS(=O)(=O)c1ccccc1)(C(F)(F)F)P(=O)(OC(C)C)OC(C)C (stereo not shown)
Second: CCOc1ccc(/C=C/C(=O)Oc2ccc(OC)cc2)cc1
The “hERG current change (%, negative = inhibition) at 10uM” value of the first is higher: 19% for the first, 13.4% for the second.

First: Cc1ccc(C(=O)N2CCN(Cc3ccc4c(c3)OCO4)CC2)cc1S(=O)(=O)N1CCOCC1
Second: CC1=CC2=NC(=O)/C(=C\c3cccn3CCOc3ccccc3)C(=N)N2O1
The “hERG current change (%, negative = inhibition) at 10uM” value of the first is lower: -22% for the first, -3.86% for the second.

With `COc1cccc(/C=C2\SC(=O)N(CCC(=O)NC3CCS(=O)(=O)C3)C2=O)c1` (stereo not shown) the “hERG current change (%, negative = inhibition) at 10uM” value was 10.2%.
